# Patent US9243038B2, “Macrocyclic insulin-degrading enzyme (IDE) inhibitors and uses thereof” (President and Fellows of Harvard College, priority 2011, dated 2016)
# Test: Preliminary pharmacokinetics after i.p. injection (LC-MS quantitation in plasma)
# Details: 30 min after 1 mg/kg injection i.p.
smiles,measurement,value
"N=C(N)NCCC[C@H](NC(=O)[C@@H](CC(=O)NO)Cc1ccc2ccccc2c1)C(=O)N[C@@H](Cc1c[nH]c2ccccc12)C(=O)N[C@@H](CCC(=O)O)C(N)=O [Ii1, reference compound]",detection in blood,not detected
